Experiments:
[1] = system: CDCP1 expressing TKCC05 pancreatic cancer cells; experiment: Flow cytometry binding of chimeric 10D7 to pancreatic cancer cells; parameters: species or system human
Excerpt: Binding for the 10D7 mouse antibody is shown left and the human/mouse chimeric 10D7 antibody and corresponding Fab is shown right.
The mouse 10D7 antibody described in examples 1-14 was modified to replace the constant region sequences of the heavy and light chains with corresponding human sequences.

[2] = system: human TKCC02 xenograft tumours; experiment: PET/CT imaging of subcutaneous human TKCC02 xenograft tumours; format: in vivo, mouse; settings: ^89Zr labelled
Experimental: PET/CT imaging was used to assess the efficacy with which the chimeric 10D7 antibody detected subcutaneous human TKCC02 xenograft tumours in mice. The chimeric antibody was labelled with the positron-emitting radionuclide ^89Zr as previously described (Zeglis B M et al., (2015) Jove-J Vis Exp (96): 52521). The labelled antibody was injected intravenously (3-5 MBq) into female NOD. Cg-Prkdc^scidIl2rg^tm1W/SzJ mice bearing subcutaneous xenografts of human TKCC02 pancreatic tumours. Imaging was performed on a Siemens Inveon preclinical PET/CT at 1, 24, 48, 72 and 144 hours post-injection.

[3] = system: TKCC05 cells, control ShRNA or ShRNA-targeting CDCP1; experiment: Incucyte internalisation assay with FabFluor-pH Red labelled antibodies; format: cell-based, human; settings: 2 μg/ml, 8 h, scanning every 15 min
Experimental: TKCC05 cells stably silenced for CDCP1 expression using an ShRNA-targeting CDCP1 or control ShRNA TKCC05 cells in 96 well/plate format were treated with 2 μg/ml of IgG isotype control, 10D7 or huma/mouse-10D7 pre-labelled with a pH-sensitive fluorescent dye (FabFluor-pH Red Antibody Labeling Reagent, Essen-Biosciences).
TKC005 pancreatic cancer cells (5,000 cells expressing control ShRNA-[…]) or ShRNA-targeting CDCP1-[…]) were plated into 96 well plate in growth medium. When confluence reached ˜50%, cells were treated with 2 μg/ml of IgG isotype control, 10D7 or Chim hu/mu-10D7 pre-labelled with pH-sensitive fluorescent dye (FabFluor-pH Red Antibody Labelling Reagent, Essen-Biosciences). Fluorescence per cells were measured in real time using Incucyte S3 over 8h with scanning every 15 min.

[4] = target: T1, CDCP1 in HEY ovarian cancer cells (Homo sapiens, UniProt Q9H5V8); experiment: CDCP1 degradation assay in ovarian cancer cells (Western blot); format: cell-based; settings: 5 μg/ml, 24h and 48h
T1 construct: cell surface CDCP1 levels about half those of endogenous expressing HEY cells; endogenous in cells; host or cells: HEY (ATCC) epithelial ovarian cancer cells
T1 sequence (Q9H5V8 30-836): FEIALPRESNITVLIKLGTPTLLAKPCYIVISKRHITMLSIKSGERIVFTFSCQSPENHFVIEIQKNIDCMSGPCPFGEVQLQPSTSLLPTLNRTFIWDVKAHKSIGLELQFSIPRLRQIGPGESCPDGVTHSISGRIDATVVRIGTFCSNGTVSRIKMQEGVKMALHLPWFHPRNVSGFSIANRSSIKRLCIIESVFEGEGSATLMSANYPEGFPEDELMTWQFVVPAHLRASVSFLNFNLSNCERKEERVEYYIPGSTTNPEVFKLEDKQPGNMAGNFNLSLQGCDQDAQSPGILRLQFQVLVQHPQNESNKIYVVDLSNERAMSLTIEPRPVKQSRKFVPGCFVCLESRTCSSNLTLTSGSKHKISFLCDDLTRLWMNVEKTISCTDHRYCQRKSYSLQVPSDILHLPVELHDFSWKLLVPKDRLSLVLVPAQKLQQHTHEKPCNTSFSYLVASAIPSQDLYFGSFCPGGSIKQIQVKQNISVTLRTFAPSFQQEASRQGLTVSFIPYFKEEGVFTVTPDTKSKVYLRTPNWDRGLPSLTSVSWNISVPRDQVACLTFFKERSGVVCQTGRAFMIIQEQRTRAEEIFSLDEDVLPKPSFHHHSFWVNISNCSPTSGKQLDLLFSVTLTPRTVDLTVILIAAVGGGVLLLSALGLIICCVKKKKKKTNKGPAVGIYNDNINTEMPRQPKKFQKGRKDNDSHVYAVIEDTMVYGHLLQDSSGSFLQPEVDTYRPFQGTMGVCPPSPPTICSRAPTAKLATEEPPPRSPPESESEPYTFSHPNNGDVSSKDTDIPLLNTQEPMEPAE
Experimental: Ovarian cancer cells (HEY) were seeded in 6 well plate in growth medium (200,000 per well). Once confluence was reached about 70%, cells were treated with 5 μg/ml of isotype IgG control, 10D7 or chimeric hu/mu-10D7 antibody in a final volume of 2 ml. Cells were lysed using RIPA buffer after 24h and 48h treatment. In addition, to investigate the re-expression of CDCP1 after 48h antibody treatment, the medium was replaced with fresh growth medium not containing any treatment for 24 and 48h (+24h and +48h respectively) and cell were lysed in RIPA buffer.

[5] = system: TKCC05 pancreatic cancer cells and HEY ovarian cancer cells; experiment: Flow cytometry with Atto-550 labelled antibodies; format: binding, human; settings: 10 ng/ml, 1 h at 4° C.
Experimental: Antibody 10D7, Chimeric hu/mu-10D7 and isotype control IgG antibodies were conjugated with fluorophore Atto-550 as per manufacturer instruction (Sigma, Atto 550 Protein labelling kit, 51146-1KT). Cancer cells (TKCC05, pancreatic cancer cells expressing CDCP1 mainly under its cleaved form; HEY, ovarian cancer cells expressing CDCP1 mainly under its full length form) were lifted using non-enzymatic solution (versene, to avoid receptor proteolysis) and blocked for 30 min using PBS+0.5% BSA (w/v).
Cells were washed 3 times using cold PBS before to be analysed by flow cytometry in parallel to unstained cells (incubated in blocking buffer in absence of antibody).

B1: human/mouse chimeric 10D7 antibody: 10D7 VH and VL cloned into human constant region heavy and light chains; SEQ ID NO:12 and 13 (antibody)
heavy: EVQLQQFGAELVKPGASVKISCKASGYSFSDFNIEWLKQSHGKSLEWIGDINPNYDSTNYNQKFKGRATLTVDKSSSTAYMEVRSLTSEDTAVYYCARLGYGYAMDYWGQGTSVTVSS[human IgG1 constant region not spelt out]
light: IVMTQSPQSMSMSVGERVTLSCKASENVGAYVSWFQQKPDQSPKLLILAASNRYTGVPARFIGSGSATDFTLTISSVQAEDLADYHCGQSYTYPYTFGGGTKLEIKRADAAPTVSIFPPSDEQLKSGTASVVCLLNNFYPREAKVQWKVDNALQSGNSQESVTEQDSKDSTYSLSSTLTLSKADYEKHKVYACEVTHQGLSSPVTKSFNRGEC
modifications: heavy chain of chimeric 10D7 antibody; light chain of chimeric 10D7 antibody
- binding to CDCP1 expressing pancreatic cancer cells [1]: bound
- accumulation in the tumour compared with parent mouse 10D7 antibody [2]: significantly greater degree
- detection of CDCP1 expressing tumours in vivo ([2]; 3-5 MBq intravenously): able to detect CDCP1 expressing tumours in vivo
- internalisation [3]: internalised specifically via CDCP1
- internalisation and degradation of CDCP1 [4]: internalised and induce the degradation of CDCP1
- binding to CDCP1 expressing cells [5]: bind
